Assay results: the RNAGym collection of RNA variant scans (doi:10.1093/nar/gkz1192)
The source gives no read counts; variants with many changes may rest on few reads.

B1: CPEB3 Ribozyme (parent)
chain: UAACAGGGGGCCACAGCAGAAGCGUUCACGUCGCAGCCCCUGUCAGAUUCUGGUGAAUCUGCGAAUUCUGCUGUAUAUCUC

Variants of: B1
Assay: self-cleavage, relative activity (ratio to wild type); higher = more cleavage; in vitro, sequencing
Procedure, shortened: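 Barcoded CPEB3 ribozyme mutants, produced by rounds of error-prone PCR, self-cleaved while being transcribed with T7 RNA polymerase for 5 hours at 37°C and during a subsequent 15 min DNase I step before EDTA was added. Sequencing of template-switched cDNA on Illumina gave cleaved and total reads, and DNA sequencing assigned barcodes to variants. Each variant's relative activity is its cleaved/total read fraction divided by the unmutated ribozyme's fraction, averaged across three batches. A variant needed a minimum of 5 reads.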

| Variant | self-cleavage |
| --- | --- |
| A5G C11A A64U | 0.27 |
| A5G C11G A13G A18G U67C U69A | 0.3 |
| A5G C11G A20G U26C | 0.47 |
| A5G C11G U25C A28G G52A | 0.24 |
| A5G C11U A28G U43C | 0.07 |
| A5G C11U C40G A65G | 0.22 |
| A5G C11U U41C A64G | 0.09 |
| A5G C11U U43C G52A | 0.23 |
| A5G C12A A20G A35U U49G U80C | 0.2 |
| A5G C12G C44G A57G U72A U78C | 0.12 |
| A5G C12U U51A A56U U67A | 0.11 |
| A5G C14A A56G A65G | 0.15 |
| A5G C14A C23U C38G U41A A64U | 0.11 |
| A5G C14U G52U | 0.92 |
| A5G C14U G52U A56U U78C | 0.74 |
| A5G C17A A35C U51C | 0.41 |
| A5G C17A U67C | 0.22 |
| A5G C17G U48C U67A | 0.25 |
| A5G C17U A18G C38U U41C U66C U78C | 0.16 |
| A5G C17U A28G U51C U78C | 0.08 |
| A5G C17U C40A U60G A64G A77U | 0.09 |

| Variant | self-cleavage |
| --- | --- |
| A5G C17U U25C C40A U60A A64G | 0.26 |
| A5G C17U U41C | 0.62 |
| A5G C17U U41C U80C | 0.53 |
| A5G C17U U43C U54C U67C | 0.03 |
| A5G C23A C37A A45U U49A A56G | 0.03 |
| A5G C23U A35G C50A U58C U60C U67C | 0.13 |
| A5G C23U U31A U74C U76A | 0.14 |
| A5G C23U U67C | 0.16 |
| A5G C27G A47G | 0.54 |
| A5G C29G A35G U43A C81G | 0.53 |
| A5G C29U G30C U48A U72C | 0.32 |
| A5G C29U U49A C62A U69G U78C | 0.16 |
| A5G C29U U49A C71U | 0.11 |
| A5G C32A G53A G61A | 0.1 |
| A5G C32U U43A A57G | 0.1 |
| A5G C32U U43C U49C U51G U54C G70A | 0.26 |
| A5G C34A C50U | 0.38 |
| A5G C34A U51A U78C U80C | 0.06 |
| A5G C34G U78C | 0.36 |
| A5G C37G A57C U76C | 0.31 |
| A5G C38A A65G U67C | 0.25 |

| Variant | self-cleavage |
| --- | --- |
| A5G C38U A56G A65U U66C | 0.34 |
| A5G C38U A56G U58C U74C U76A | 0.28 |
| A5G C38U U41C A57G U72C | 0.19 |
| A5G C39A U41C G42A | 0.32 |
| A5G C40U U74C | 0.8 |
| A5G C44A U69A | 0.35 |
| A5G C44U G55U A65G U69A | 0.3 |
| A5G C59U A77G C81U | 0.45 |
| A5G G6A A13C | 0.17 |
| A5G G6A C59A C62A | 0.16 |
| A5G G6A U26A U66C U80C | 0.19 |
| A5G G6C G7A C23G U25C U49A | 0.28 |
| A5G G6C U43C A56G A64G U69A | 0.05 |
| A5G G6U A21G A64G | 0.25 |
| A5G G6U A28U | 0.29 |
| A5G G7A A13G G53A A56G | 0.34 |
| A5G G7A A13U U26A | 0.27 |
| A5G G7A C40G A45G U49A | 0.28 |
| A5G G7A U69A U72C U74C | 0.09 |
| A5G G7C A18U G19A A28G U58C U80G | 0.07 |
| A5G G7C A45G | 0.12 |

| Variant | self-cleavage |
| --- | --- |
| A5G G7U A18U U67A U72C | 0.16 |
| A5G G7U A64G | 0.14 |
| A5G G8A A13G G33A G52A U60C U74A | 0.07 |
| A5G G8A A28G A75G | 0.09 |
| A5G G8A A35G A56U A64U U66C | 0.05 |
| A5G G8A C14U U31C | 0.25 |
| A5G G8A U26C A28U A75U | 0.05 |
| A5G G8U A15G U43G U49A U72C | 0.06 |
| A5G G8U A45G A64G U66C | 0.23 |
| A5G G8U G30C U69A U72C | 0.05 |
| A5G G8U U26C A35G | 0.44 |
| A5G G9A A18U A20G U67A U69C C71U | 0.18 |
| A5G G9A A20G A35G A45C U69A | 0.09 |
| A5G G9A A57G U60A | 0.07 |
| A5G G9A C23U | 0.64 |
| A5G G10A A13G C17U A20G A56U U66C | 0.08 |
| A5G G10A C17U | 0.49 |
| A5G G10A C29A C39G C59G U80C | 0.05 |
| A5G G10A C68U U80C | 0.38 |
| A5G G10A U48C U49C U54C | 0.04 |
